From PubChem BioAssay AID504339 (National Center for Advancing Translational Sciences (NCATS), 2011)
Where “and” joins values, the source holds several entries; their conditions need not be identical. Equal entries are not always repeated. Screen size: about 390,000 compounds; about 17,000 (4.4%) were called active. The inconclusive results got no clear call from the source; some entries with a clear call stand among them for comparison. The call rests on the fitted dose curve; in most records, active means well fitted inhibition curve with a large enough effect; inconclusive means small, poorly fitted or top-dose-only effect; inactive means no such curve, though single readings can be large or run the other way. A potency beside an inconclusive call is a rough fit, not a confirmed value.
Further: nearly all actives have a fitted effect of over 50% in size.
On the % scale 0 is the no-effect control and ±100 the full control effect; potency means the concentration at half of the fitted maximal effect; tags describe the fitted curve by direction and shape.

These compounds were tested against Lysine-specific demethylase 4A (Homo sapiens) (UniProt O75164) (assay: qHTS Assay for Inhibitors of JMJD2A-Tudor Domain). Conditions: AlphaScreen JMJD2A-Tudor / H3K4me3 peptide binding; activity change, negative = inhibition: at 114 µM (top of the series).
Sequence of UniProt O75164 (O75164 whole entry, looked up, the tested form may be a part): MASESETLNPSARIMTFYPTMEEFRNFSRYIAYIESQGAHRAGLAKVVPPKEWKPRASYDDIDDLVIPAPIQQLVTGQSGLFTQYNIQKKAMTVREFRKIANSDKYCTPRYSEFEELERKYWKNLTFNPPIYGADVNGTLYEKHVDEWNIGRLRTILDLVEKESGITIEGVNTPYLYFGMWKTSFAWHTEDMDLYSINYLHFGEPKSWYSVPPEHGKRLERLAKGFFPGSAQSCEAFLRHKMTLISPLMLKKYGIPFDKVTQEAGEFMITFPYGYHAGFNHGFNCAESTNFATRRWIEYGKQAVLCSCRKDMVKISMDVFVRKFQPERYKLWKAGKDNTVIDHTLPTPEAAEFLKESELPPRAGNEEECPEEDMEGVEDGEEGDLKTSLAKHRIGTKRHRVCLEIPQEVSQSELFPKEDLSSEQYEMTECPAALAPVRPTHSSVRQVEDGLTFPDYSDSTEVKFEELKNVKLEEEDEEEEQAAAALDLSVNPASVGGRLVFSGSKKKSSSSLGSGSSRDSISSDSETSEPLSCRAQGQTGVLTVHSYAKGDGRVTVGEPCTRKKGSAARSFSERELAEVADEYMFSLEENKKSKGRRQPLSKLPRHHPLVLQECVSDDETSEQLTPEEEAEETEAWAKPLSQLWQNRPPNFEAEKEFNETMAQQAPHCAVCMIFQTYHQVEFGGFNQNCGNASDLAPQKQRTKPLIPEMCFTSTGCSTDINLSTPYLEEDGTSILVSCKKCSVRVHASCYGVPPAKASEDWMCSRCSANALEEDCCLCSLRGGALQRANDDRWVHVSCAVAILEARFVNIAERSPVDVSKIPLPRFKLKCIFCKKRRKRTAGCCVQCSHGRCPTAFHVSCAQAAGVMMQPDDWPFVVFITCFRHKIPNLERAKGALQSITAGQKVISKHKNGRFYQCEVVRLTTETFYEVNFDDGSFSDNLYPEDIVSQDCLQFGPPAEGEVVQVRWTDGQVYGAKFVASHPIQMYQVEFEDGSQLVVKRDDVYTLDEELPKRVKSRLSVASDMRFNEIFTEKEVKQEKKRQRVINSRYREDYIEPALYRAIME
For `O=C(Nc1ccccc1Br)C1CC(=O)N(c2ccc3c(c2)OCCO3)C1` (stereo unspecified), the “activity change, negative = inhibition” value was inactive: -16.4%.
In the case of `CCC(=O)C1=C(c2cccc([N+](=O)[O-])c2)N(C(=O)CC)n2c(nnc2-c2ccccc2)S1`, the “activity change, negative = inhibition” value is reported as inactive: -5.52%.
For `CC(/C=N/NC(=O)Cc1cc(=O)[nH][nH]1)=C\c1ccccc1`, the Potency was inconclusive: 89.1 µM [inhibitor, single point].
`COc1ccccc1N1CCN(Cc2cc3c(cc2[N+](=O)[O-])OCO3)CC1` was tested, and the Potency was inconclusive: 56.2 µM [inhibitor, partial curve].
With `COc1ccccc1C(=O)NC(=O)Nc1nc(-c2ccccc2)cc(C(F)(F)F)n1` the Potency was inconclusive: 14.1 µM [inhibitor, partial curve, poor fit].
With `O=C(O)CCCc1nc(-c2ccccc2)no1` the Potency was inconclusive: 89.1 µM [inhibitor, single point].
For `COc1ccc(CCNc2ncnc3c2c(-c2ccccc2)cn3-c2ccc(F)cc2)cc1OC`, the Potency was inconclusive: 28.2 µM [inhibitor, partial curve].
In the case of `Cc1c(CN(C)CCc2ccccc2)c(=O)n(-c2ccccc2)n1C`, the Potency is reported as active: 3.55 µM.
With `COc1ccc(NC(=S)Nc2ccc3nccnc3c2)cc1` the “activity change, negative = inhibition” value was inactive: -24.9%.
In the case of `O=C1N=c2ccccc2=C1c1sc(Nc2ccc(O)cc2)nc1O`, the Potency is reported as inconclusive: 2.51 µM [inhibitor, partial curve, poor fit].
`Cc1ccc(-n2c(SCC(=O)Nc3ccc4c(c3)OCO4)nc3c([nH]c4ccccc43)c2=O)cc1` was tested, and the Potency was inconclusive: 50.1 µM [inhibitor, partial curve].
With `O=C(c1cc2ccccc2cc1O)N1CCN(c2ccc([N+](=O)[O-])cc2)CC1` the “activity change, negative = inhibition” value was inactive: -30.4%.
For `Cc1snc(SCc2ccc(F)cc2)c1C#N`, the “activity change, negative = inhibition” value was inactive: 109%.
With `Cc1ccc(N2CCN(C(=O)c3c4c(nc5ccccc35)C(=O)N(C3CCCCC3)C4)CC2)c(C)c1` the Potency was inconclusive: 25.1 µM [inhibitor, full curve].
`Cc1ccc(NC2=C(C(=O)c3ccccc3)N(C)S(=O)(=O)c3ccccc32)cc1` was tested, and the Potency was inconclusive: 44.7 µM [inhibitor, partial curve].
In the case of `CN(C)c1ccc2nc3ccc(=[N+](C)C)cc-3sc2c1`, the Potency is reported as inconclusive: 44.7 µM [inhibitor, partial curve].
In the case of `COc1ccc(-c2cc(=O)n(-c3nc4ccccc4[nH]3)[nH]2)cc1`, the Potency is reported as inconclusive: 89.1 µM [inhibitor, single point].
In the case of `N#CCc1c(C#N)c(N)nc(N2CCN(c3ccc(F)cc3)CC2)c1C#N`, the Potency is reported as inconclusive: 89.1 µM [inhibitor, partial curve].
In the case of `CN(C)c1ccc(CNC(=O)C2CCN(S(=O)(=O)c3ccc4c(ccn4C)c3)CC2)cc1`, the Potency is reported as inconclusive: 50.1 µM [inhibitor, partial curve].
With `COc1cc2c(cc1OC)CN(Cc1ccc(F)cc1)CC2` the Potency was active: 3.16 µM.
`NS(=O)(=O)c1ccc(NC(=S)N2CCN(C(=O)C3CCCO3)CC2)cc1` (stereo unspecified) was tested, and the “activity change, negative = inhibition” value was inactive: 9.93%.
With `CN(CC(=O)Nc1ccc(F)cc1)C(=O)c1ccc(OCc2cn3ccccc3n2)cc1` the “activity change, negative = inhibition” value was inactive: -16.6%.
With `O=C(Nc1ccccc1Cl)OC1CCCCC1` the “activity change, negative = inhibition” value was inactive: 64.3%.
In the case of `Nc1c(Cl)ncnc1N/N=C/c1cccnc1`, the Potency is reported as inconclusive: 39.8 µM [inhibitor, single point].
`CN1CCN(c2ccccc2/C=N/NC(=O)c2cccnc2)CC1` was tested, and the Potency was inconclusive: 3.16 µM [inhibitor, full curve].
`O=c1[nH]c2c(s1)C(c1ccco1)C1C3CCC(C3)C1S2` (stereo unspecified) was tested, and the Potency was inconclusive: 56.2 µM [inhibitor, partial curve].
For `O=[N+]([O-])c1cccc2ccc(/C=C/c3ccc(F)cc3)nc12`, the Potency was inconclusive: 22.4 µM [inhibitor, full curve].
With `Cc1ccc(NCc2nnc(SCC(=O)c3ccccc3)n2Cc2ccco2)c(C)c1` the Potency was inconclusive: 56.2 µM [inhibitor, partial curve].
In the case of `COc1ccccc1NC(=O)C(=O)NNC(=O)c1ccco1`, the Potency is reported as inconclusive: 3.55 µM [inhibitor, full curve, poor fit].
In the case of `CC(C)Oc1ccc(CNC(=O)c2ccc(NC(=O)N3CCSc4ncccc43)cc2)cc1`, the “activity change, negative = inhibition” value is reported as inactive: -21.4%.
`CC(C)(C)n1cnc2cc(NCc3ccccc3Cl)ccc21` was tested, and the Potency was active: 39.8 µM.
In the case of `COc1ccc(-c2oc3ccc(-c4cc(OC)c(OC)c(OC)c4)cc3c2C#Cc2ccccn2)cc1`, the “activity change, negative = inhibition” value is reported as inactive: 30.7%.
In the case of `Cc1cc(NC(=O)C2CCCCC2)ncc1NC(=O)c1ccccn1`, the “activity change, negative = inhibition” value is reported as inactive: -4.55%.
In the case of `CC(=O)c1c(COC(=O)c2ccccc2Cl)nc2ccccc2[n+]1[O-]`, the Potency is reported as inconclusive: 79.4 µM [inhibitor, partial curve].
In the case of `Cc1[nH]c2c(C)cccc2c1CCNS(=O)(=O)c1cccc([N+](=O)[O-])c1`, the Potency is reported as inconclusive: 50.1 µM [inhibitor, partial curve].
In the case of `Nc1ccc(S(N)(=O)=O)cc1N`, the “activity change, negative = inhibition” value is reported as inactive: -23.1%.
`CCCCOC(=O)c1ccc(NC(C)=O)cc1` was tested, and the “activity change, negative = inhibition” value was inactive: 2.77%.
In the case of `Cn1[nH]c(=O)c(Cl)c(Cl)c1=O`, the Potency is reported as inconclusive: 22.4 µM [inhibitor, partial curve].
For `COc1ccc2nc(NC(=O)C3CCN(S(=O)(=O)c4cccs4)CC3)sc2c1`, the Potency was active: 100 µM.
With `CCOc1ccc2c(c1)n(CO)c(=S)n2CO` the Potency was active: 79.4 µM.
In the case of `CC1Nc2ncnc(N3CCN(c4ccccc4)CC3)c2N(Cc2ccc(Cl)cc2)C1=O` (stereo unspecified), the Potency is reported as inconclusive: 50.1 µM [inhibitor, partial curve].
In the case of `COc1ccc(CC(=O)NCC(=O)NC(Cc2ccccc2)C(=O)O)cc1` (stereo unspecified), the “activity change, negative = inhibition” value is reported as inactive: -21.4%.
For `CC[C@H](C)/C=C(C)/C=C/C(=O)Cc1cc(O)c(C)c(O)c1C=O`, the Potency was inconclusive: 22.4 µM [inhibitor, full curve].
For `Cc1cc[n+](-c2[nH]c(=O)sc2/C=N/NC([S-])=Nc2ccccc2)cc1`, the Potency was inconclusive: 63.1 µM [inhibitor, single point].
With `CCOCCCNC(=S)N1CCCN(c2nc3c(C)c(C)ccc3cc2C#N)CC1` the “activity change, negative = inhibition” value was inactive: 41.3%.
With `CCCC(C)C(=O)Nc1nc(C)c(-c2csc(Nc3cc(Cl)ccc3C)n2)s1` (stereo unspecified) the Potency was inconclusive: 89.1 µM [inhibitor, partial curve].
`CCOc1ccc(C2c3[nH]c4ccccc4c3CCN2C(=O)Cc2cccc(OCC)c2OCC)cc1` (stereo unspecified) was tested, and the Potency was inconclusive: 31.6 µM [inhibitor, full curve, poor fit].
With `O=C(NCCCn1ccnc1)c1cn(-c2ccccc2)nc1-c1ccc(F)cc1` the Potency was inconclusive: 63.1 µM [inhibitor, partial curve].
With `CC(=O)C1=C(C)NC(SCC(=O)c2ccc(Cl)c(Cl)c2)=C(C#N)C1c1ccco1` (stereo unspecified) the Potency was inconclusive: 63.1 µM [inhibitor, partial curve, poor fit].
For `CN(C1CCCCC1)S(=O)(=O)c1cc2c3c(c1)CCN3C(=O)CC2`, the “activity change, negative = inhibition” value was inactive: 3.09%.
For `O=C(CCl)N1CCCC1c1ccc2c(c1)OCCO2` (stereo unspecified), the Potency was inconclusive: 17.8 µM [inhibitor, single point].
`CC(=O)NNC(=S)NC(=O)c1cccc([N+](=O)[O-])c1` was tested, and the Potency was active: 8.91 µM.
For `COc1cc(/C=C2\CCC/C(=C\c3ccc(O)c(OC)c3)C2=O)ccc1O`, the Potency was active: 28.2 µM.
For `CCCCS(=O)(=O)N1C2=NC(C(=O)OC)=C(C(=O)OC)[C@@H]3N(C)c4ccc(OC)cc4[C@]23C[C@H]1C(=O)OC`, the Potency was inconclusive: 50.1 µM [inhibitor, partial curve].
For `CCOC(=O)c1nc(N2CCN(c3ccc(F)cc3)CC2)c2c(C)noc2n1`, the “activity change, negative = inhibition” value was inactive: -21.7%.
With `COc1cccc(OC)c1C(=O)N1CCN(Cc2ccncc2)CC1` the Potency was active: 8.91 µM.
For `CCCCOc1ccc(C(=O)N/C(=C/C=C/c2ccccc2)C(=O)NCCCO)cc1`, the Potency was inconclusive: 56.2 µM [inhibitor, partial curve].
`Cc1ccc(C)c(-n2c(-c3csc(C)c3C)n[nH]c2=S)c1` was tested, and the Potency was active: 25.1 µM.
With `COc1ccccc1OCCNc1cc(N2CCOCC2)ccc1[N+](=O)[O-]` the Potency was inconclusive: 50.1 µM [inhibitor, partial curve].
In the case of `O=C(NCc1cccs1)C(NS(=O)(=O)c1cccc2nsnc12)c1ccccc1` (stereo unspecified), the Potency is reported as inconclusive: 35.5 µM [inhibitor, partial curve].
With `CC(C)C(c1nnnn1Cc1cccs1)N1CCN(C(=O)c2ccco2)CC1` (stereo unspecified) the Potency was inconclusive: 22.4 µM [inhibitor, partial curve].
With `N#Cc1ccc(N=c2ssnc2Cl)cc1` the Potency was active: 20 µM and active: 22.4 µM.
In the case of `N#CC(=C=[N-])c1nc2ccccc2nc1-[n+]1cccc(NC(=O)c2ccccc2)c1`, the “activity change, negative = inhibition” value is reported as inactive: -11.9%.
With `O=C(NCc1ccco1)C12CN(Cc3ccccc3)CC1C(c1ccc([N+](=O)[O-])cc1)=NO2` (stereo unspecified) the Potency was inconclusive: 63.1 µM [inhibitor, partial curve, poor fit].
For `O=C(NC1CCCCC1)N1CCC(n2cnc3ccccc32)CC1`, the Potency was active: 56.2 µM.
In the case of `COc1ccc(-c2cc(C(=O)Nc3ccn(Cc4ccc(C)cc4)n3)no2)cc1OC`, the “activity change, negative = inhibition” value is reported as inactive: -13.7%.
`Cc1cc2ccccn2c1C(=O)c1ccc(S(=O)(=O)N(C)C)cc1` was tested, and the Potency was inconclusive: 39.8 µM [inhibitor, partial curve].
For `N#CC1=C2SCC(O)(c3ccccc3)N2C(=O)CC1c1ccccc1` (stereo unspecified), the “activity change, negative = inhibition” value was inactive: -33.2%.
In the case of `O=C(NCc1ccccc1Cl)c1cnc2sc(N3CCOCC3)nn2c1=O`, the “activity change, negative = inhibition” value is reported as inactive: -5.19%.
`CCC1=C(OC(=O)N(CC)CC)N2C(=O)OC(=NCCc3c[nH]c4ccccc34)[C@]2(Cc2ccccc2)[C@H]2C1=CC[C@H]1C(=O)NC(=O)[C@H]12` was tested, and the Potency was inconclusive: 35.5 µM [inhibitor, partial curve].
With `COc1cccc(NC(=O)c2cc(-c3ccco3)nc3ccccc23)c1` the Potency was inconclusive: 12.6 µM [inhibitor, partial curve, poor fit].
